# Measurements published in the supplement of paper PMC7826260.
# The list shows a part of the results. Cleavage of a single-stranded DNA pool by Rep nickase domains was read by sequencing (3 µM enzyme, 1 h, 37 °C); shown is the middle of each 90-letter strand. Numbers give uncut DNA relative to the enzyme-free pool, as log2; more negative means more cut, near 0 not cut, and no call is made. Shares of all reads are compared, so uncut sequences can rise above 0 when many others are cut.
# Tested on: T1, Rep nickase domain of tomato yellow leaf curl virus
# T1 sequence (Rep 1-136, printed without the tag): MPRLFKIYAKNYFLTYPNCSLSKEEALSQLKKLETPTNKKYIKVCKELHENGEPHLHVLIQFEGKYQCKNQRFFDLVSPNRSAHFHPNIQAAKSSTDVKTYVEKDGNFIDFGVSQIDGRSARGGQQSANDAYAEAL
# Test: uncleaved DNA left, log2 of reads against the no-enzyme library (log2 ratio); higher = less cleavage (more negative = more Rep cleavage of the k-mer); sequences stand for … in CTCGTCCG…ACCGGAGA
# Protocol: (§1)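 A pool of 90-nt single-stranded DNAs with seven random bases just before the constant AC of the nick site (name = the seven bases) was cut by 3 µM recombinant His6-SUMO-tagged Rep nickase domain (300 nM DNA, 50 mM HEPES pH 8.0, 50 mM NaCl, 1 mM MnCl2, 1 h, 37 °C, three replicates). Uncut DNA was amplified and sequenced.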
row,Sequence,uncleaved DNA left (log2)
1,TTCTGAG,0.205
2,ACTTGTT,0.0179
3,TGGAGCC,-0.0646
4,ATGCACA,-0.0635
5,CGCTTTA,0.0323
6,CTAGGAA,-0.0245
7,CGTGGTA,0.0513
8,CCGAGGG,-0.215
9,GAGAAAC,0.0808
10,AACGGGC,-0.0912
11,GCGAAGT,-0.0568
12,CTCGCGG,-0.192
13,TCGTCTC,-0.0967
14,ATTTTTA,-0.145
15,TTGGCTC,-0.0202
16,CATAAGT,0.0699
17,CATGGGG,-0.0618
18,AATTACG,0.0384
19,CACTATG,0.14
20,AGACGAG,0.0268

row,Sequence,uncleaved DNA left (log2)
1,TTTCGAA,-0.0381
2,CGCGTTA,0.00451
3,CCGTGAG,0.0699
4,GTCTTCT,0.109
5,GTCGGCA,0.00361
6,ACCGCTT,-0.18
7,CCGGGGT,-0.0579
8,CGCCGGG,0.0897
9,TGCTCCT,-0.0938
10,ACGGCAA,0.141
11,TCTACAC,-0.0149
12,TGCTCTA,-0.144
13,TCCCAAC,0.0279
14,TTCAGCT,-0.0209
15,CCCAAAT,0.082
16,CACCCGG,-0.093
17,CTTGGGC,0.206
18,ACGTGCA,0.0381
19,TAGGCTC,0.0015
20,TTACCTT,-0.0963

# Tested on: T2, Rep nickase domain of wheat dwarf virus
# T2 sequence (Rep 1-137, printed without the tag): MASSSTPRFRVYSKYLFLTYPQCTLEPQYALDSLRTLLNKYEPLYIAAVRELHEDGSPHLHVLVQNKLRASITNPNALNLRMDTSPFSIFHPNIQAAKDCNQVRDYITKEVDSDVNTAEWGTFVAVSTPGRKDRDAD
# Test: as above
# Protocol: as §1
row,Sequence,uncleaved DNA left (log2)
1,TTCTGAG,0.222
2,ACTTGTT,-0.48
3,TGGAGCC,0.0144
4,ATGCACA,-0.0015
5,CGCTTTA,-0.0472
6,CTAGGAA,0.113
7,CGTGGTA,0.0259
8,CCGAGGG,0.0248
9,GAGAAAC,0.14
10,AACGGGC,-0.0179
11,GCGAAGT,-0.0634
12,CTCGCGG,0.0142
13,TCGTCTC,-0.0878
14,ATTTTTA,-0.151
15,TTGGCTC,-0.435
16,CATAAGT,-0.0573
17,CATGGGG,-0.0609
18,AATTACG,0.00666
19,CACTATG,0.0465
20,AGACGAG,-0.000606

row,Sequence,uncleaved DNA left (log2)
1,TTTCGAA,-0.0195
2,CGCGTTA,-0.187
3,CCGTGAG,-0.168
4,GTCTTCT,0.0359
5,GTCGGCA,0.134
6,ACCGCTT,-0.287
7,CCGGGGT,0.0484
8,CGCCGGG,0.0695
9,TGCTCCT,-0.232
10,ACGGCAA,0.111
11,TCTACAC,0.02
12,TGCTCTA,-0.167
13,TCCCAAC,-0.0057
14,TTCAGCT,-0.0882
15,CCCAAAT,-0.041
16,CACCCGG,0.0016
17,CTTGGGC,-0.0293
18,ACGTGCA,-0.00879
19,TAGGCTC,-0.0164
20,TTACCTT,-0.255
